In US11198713B2, “Agents modulating beta-catenin functions and methods thereof” (FOG PHARMACEUTICALS, INC., priority 2017, dated 2021):
At least one peptide structure holds a part that was inferred or is arguable (an end, a ring closure or a residue).

Test system: TCF/LEF Luciferase reporter HEK293 cell lines
Assay: TCF/LEF reporter assay
Assay type: cell-based
Details: 10 μM, Table 2

| Compound | TCF/LEF Reporter Inhibition at 10 μM |
| --- | --- |
| CC[C@H](C)[C@@H]1NC(=O)[C@H](Cc2c[nH]cn2)NC(=O)[C@H](C)NC(=O)[C@H](Cc2ccc(F)cc2)NC(=O)[C@H](CC(C)C)NC(=O)[C@H]([C@@H](C)CC)NC(=O)[C@](C)(NC(=O)[C@H](C)NC(C)=O)CCCCCCC=CCOC(=O)N2CC(C(=O)N[C@@H](Cc3ccc(F)cc3)C(=O)N[C@H](C(=O)N[C@@H](Cc3c[nH]c4ccccc34)C(N)=O)C(C)C)(C2)NC1=O [FP0346c, Ac-A-R8-I-L-4FF-A-H-I-MA-4FF-V-W-NH2] | 36% |
| CC[C@H](C)[C@@H]1NC(=O)[C@H](Cc2c[nH]cn2)NC(=O)[C@H](C)NC(=O)[C@H](Cc2ccc(OC)cc2)NC(=O)[C@H](CC(C)C)NC(=O)[C@H]([C@@H](C)CC)NC(=O)[C@](C)(NC(=O)[C@H](C)NC(C)=O)CCCCCCC=CCOC(=O)N2CC(C(=O)N[C@@H](Cc3ccc(F)cc3)C(=O)N[C@H](C(=O)N[C@@H](Cc3c[nH]c4ccccc34)C(N)=O)C(C)C)(C2)NC1=O [FP0349c, Ac-A-R8-I-L-MeY-A-H-I-MA-4FF-V-W-NH2] | 50% |
| CC[C@H](C)[C@@H]1NC(=O)[C@H](Cc2c[nH]cn2)NC(=O)[C@H](C)NC(=O)[C@H](Cc2ccccc2)NC(=O)[C@H](CC(C)C)NC(=O)[C@H]([C@@H](C)CC)NC(=O)[C@](C)(NC(=O)[C@H](C)NC(C)=O)CCCCCCC=CCOC(=O)N2CC[C@@](C(=O)N[C@@H](CCCNC(=N)N)C(=O)N[C@H](C(=O)N[C@@H](Cc3c[nH]c4ccccc34)C(N)=O)C(C)C)(C2)NC1=O [FP0350c, Ac-A-R8-I-L-F-A-H-I-MB-R-V-W-NH2] | 1% |
| CC[C@H](C)[C@@H]1NC(=O)[C@H](Cc2c[nH]cn2)NC(=O)[C@H](C)NC(=O)[C@H](Cc2ccccc2)NC(=O)[C@H](CC(C)C)NC(=O)[C@H]([C@@H](C)CC)NC(=O)[C@](C)(NC(=O)[C@H](C)NC(C)=O)CCCCCCC=CCOC(=O)N2CC(C(=O)N[C@@H](Cc3ccc(F)cc3)C(=O)N[C@H](C(=O)N[C@@H](Cc3c[nH]c4ccccc34)C(N)=O)C(C)C)(C2)NC1=O [FP0352c, Ac-A-R8-I-L-F-A-H-I-MA-4FF-V-W-NH2] | 38% |
| CC[C@H](C)[C@@H]1NC(=O)[C@H](Cc2c[nH]cn2)NC(=O)[C@H](C)NC(=O)[C@H](Cc2cccc3ccccc23)NC(=O)[C@H](CC(C)C)NC(=O)[C@H]([C@@H](C)CC)NC(=O)[C@](C)(NC(=O)[C@H](C)NC(C)=O)CCCCCCC=CCOC(=O)N2CC[C@@](C(=O)N[C@@H](CCCNC(=N)N)C(=O)N[C@H](C(=O)N[C@@H](Cc3c[nH]c4ccccc34)C(N)=O)C(C)C)(C2)NC1=O [FP0353c, Ac-A-R8-I-L-1NapA-A-H-I-MB-R-V-W-NH2] | 0% |
| CC[C@H](C)[C@@H]1NC(=O)[C@H](Cc2c[nH]cn2)NC(=O)[C@H](C)NC(=O)[C@H](Cc2cccc3ccccc23)NC(=O)[C@H](CC(C)C)NC(=O)[C@H]([C@@H](C)CC)NC(=O)C2(NC(=O)[C@H](C)NC(C)=O)CN(C2)C(=O)OCC=CCCCCCC[C@@](C)(C(=O)N[C@@H](Cc2ccc(O)cc2)C(=O)N[C@H](C(=O)N[C@@H](Cc2c[nH]c3ccccc23)C(N)=O)C(C)C)NC1=O [FP0354c, Ac-A-MA-I-L-1NapA-A-H-I-S8-Y-V-W-NH2] | 28% |
| CC[C@H](C)[C@@H]1NC(=O)[C@H](Cc2c[nH]cn2)NC(=O)[C@H](C)NC(=O)[C@H](Cc2cccc3ccccc23)NC(=O)[C@H](CC(C)C)NC(=O)[C@H]([C@@H](C)CC)NC(=O)[C@](C)(NC(=O)[C@H](C)NC(C)=O)CCCCCCC=CCOC(=O)N2CC(C(=O)N[C@@H](Cc3ccc(F)cc3)C(=O)N[C@H](C(=O)N[C@@H](Cc3c[nH]c4ccccc34)C(N)=O)C(C)C)(C2)NC1=O [FP0355c, Ac-A-R8-I-L-1NapA-A-H-I-MA-4FF-V-W-NH2] | 0% |
